In PubChem BioAssay AID686978 (National Center for Advancing Translational Sciences (NCATS), 2013):
Several values for one entry are separate records, joined by “and”; a condition that tells them apart may be missing. Equal entries are not always repeated. Out of some 420,000 compounds screened, about 64,000 (15%) were called active. The shares of active, inactive and inconclusive entries below differ from those in the screen. The call rests on the fitted dose curve; in most records, active means well fitted inhibition curve with a large enough effect; inconclusive means small, poorly fitted or top-dose-only effect; inactive means flat fitted curve, though single readings scatter. Potencies beside an inconclusive call are fits to weak or partial responses and may not hold up.

Test: qHTS for Inhibitors of human tyrosyl-DNA phosphodiesterase 1 (TDP1): qHTS in cells in absence of CPT; further: nearly all actives have a fitted effect of over 55% in size
Conditions: DT40 Tdp1-/- hTDP1 cells, no CPT, ATP luminescence, 48 h; activity change, negative = growth inhibition: at 46.2 µM (top of the series) unless noted
Procedure, shortened: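 A cellular qHTS used chicken DT40 cells lacking endogenous Tdp1 but carrying stably transfected human TDP1. Compounds were applied without camptothecin, and cell growth kinetics were judged by ATP-dependent luminescence after ≥48 hr.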
On the % scale 0 is the no-effect control and ±100 the full control effect; potency means the concentration at half of the fitted maximal effect; tags describe the fitted curve by direction and shape.

Structure (SMILES) | Potency | activity change, negative = growth inhibition
CCS(=O)(=O)N1Cc2ccccc2CC1C(=O)NCC12CC3CC(CC(C3)C1)C2 (stereo not given) | inconclusive: 20.6 µM [inhibitor, partial curve] | 
CC(C(=O)c1c[nH]c2ccccc12)N1CCOCC1 (stereo not given) |  | inactive: -1.63%
CCn1cc2nc(SCc3cccc(C(F)(F)F)c3)n(Cc3ccc(OC)cc3)c(=O)c2n1 | active: 14.6 µM | 
CCC(=O)c1cn(Cc2ccccc2)c2ccccc12 | inconclusive: 16.4 µM [inhibitor, single point] | 
O=[N+]([O-])c1cccc(CN2CC=C(c3ccc(F)cc3)CC2)c1 | inconclusive: 29.1 µM [inhibitor, single point] | 
c1cc2c(c(NC3=NCCCS3)c1)CCCC2 | inconclusive: 29.1 µM [inhibitor, single point] | 
N#Cc1c(N2CCNCC2)nc(-c2ccco2)c2c1CCCC2 | inconclusive: 16.4 µM [inhibitor, partial curve, poor fit] | 
C=CC[C@@H](C)CC(=O)C(CCCN=[N+]=[N-])SOOc1ccccc1 (stereo not given in full) | inconclusive: 29.1 µM [inhibitor, single point] | 
CC(C)(C)OC(=O)N1CCC(c2c(C(=O)N3CCN(Cc4ccccc4)CC3)cnn2-c2ccc(Cl)cc2)CC1 | active: 20.6 µM | 
Cc1nc2ccccc2c(=O)n1-c1ccc(Br)cc1[N+](=O)[O-] | inconclusive: 20.6 µM [inhibitor, single point] | 
C=C1CC[C@@]2(O)[C@H]3Cc4ccc(O)c5c4[C@@]2(CCN3CC2CC2)[C@H]1O5 | inactive | 
COC(=O)C1=C(c2ccc(F)cc2OCc2ccccc2)C[C@@H]2CC[C@H]1N2C(=O)NCc1ccco1 | inconclusive: 23.1 µM [inhibitor, single point] | 
C[C@]12Cc3nonc3C[C@@H]1CC[C@@H]1[C@@H]2CC[C@@]2(C)[C@H]1CC[C@]2(C)O | inconclusive: 21.1 µM [inhibitor, single point] | 
O=C(Nc1cccnc1)c1c(O)c2c(n(Cc3ccccc3)c1=O)CCCC2 | inconclusive: 29.1 µM [inhibitor, single point] | 
CCCCCn1c(=O)c(C(=O)NCc2ccccc2)c(O)c2ccccc21 | active: 6.51 µM | 
CNC(=O)Oc1ccc(-c2cn3cc(Cl)ccc3n2)cc1 | inconclusive: 18.4 µM [inhibitor, single point] | 
O=c1[nH]c2ccccc2n1C1CCN(C(c2cc3ccccc3o2)c2nnnn2Cc2ccccc2)CC1 (stereo not given) | active: 9.2 µM | 
COC1CCC(OC2CC(C3(C)CCC4(CC(O)C(C)C(C(C)/C=C(\C)C(=O)C(C)CC(C)C(=O)O)O4)O3)OC3(OC(C4OC(O)(CO)C(C)CC4C)CC3C)C2C)OC1C (stereo not given) | active: 0.146 µM | 
N#Cc1ccc(NC(=O)CN2C(=O)NC3(CCCC3)C2=O)cc1Cl | inconclusive: 29.1 µM [inhibitor, single point] | 
O=C1NC(=O)C(=Cc2ccsc2)C(=O)N1 |  | inactive: 2.07%
CCc1nc2ccccc2c(=O)n1-c1ccc2ccccc2c1 | inconclusive: 29.1 µM [inhibitor, single point] | 
Cn1c(O)c(C(=Nc2ccccc2)SCc2ccc(Cl)cc2)c(=O)n(C)c1=O | active: 3.26 µM | 
N=Cc1c(O)n(-c2ccccc2)c(=O)n(-c2ccccc2)c1=O |  | inactive: -10.3%

Structure (SMILES) | Potency | activity change, negative = growth inhibition
O=C(NC(=S)N1C[C@H]2C[C@H](C1)c1cccc(=O)n1C2)c1ccc(F)cc1 |  | inactive: -2.67%
Cc1csc(NC(=O)C(Cl)c2ccccc2)n1 (stereo not given) (tested in a mixture with another compound) | inconclusive: 29.1 µM [inhibitor, single point] | 
CC1CCN(C(CC(=O)c2ccccc2)C(=O)c2ccccc2)CC1 (stereo not given) | active: 2.06 µM | 
CSc1nc(N)c(N=Nc2ccc([As](=O)(O)O)cc2)c(=O)[nH]1 | inconclusive: 25.9 µM [inhibitor, partial curve, poor fit] | 
O=C(O)[C@@H](O)[C@H](O)C(=O)O |  | inactive: -4.34%
CCCCCn1c(NC(=O)c2ccco2)c(C(=O)OCC)c2nc3ccccc3nc21 | active: 16.4 µM | 
CC1CCC2C(C)C(=O)OC3OC4(C)CCC1C32OO4 (stereo not given) | active: 0.841 µM | 
CC(=O)O[C@H]1CC[C@@]2(C)C(=CC[C@@H]3[C@@H]2CC[C@]2(C)C(=O)CC[C@@H]32)C1 | inactive and inconclusive: 20.6 µM [inhibitor, single point] | 
COc1ccc(C2CC(=O)Oc3c2c(=O)oc2ccccc32)c(OC)c1OC (stereo not given) |  | inactive: -2.56%
O=C(Oc1ccccc1)N1CCC2(CC1)CN(Cc1ccncc1)C2 |  | inconclusive: -32.8% [inhibitor]
Nc1ccc2c(c1)Cc1cc([N+](=O)[O-])ccc1-2 | inconclusive: 18.4 µM [inhibitor, single point] | 
Cc1cc(OCC(=O)NCC(O)c2ccccc2)c2c3c(c(=O)oc2c1)CCCC3 (stereo not given) | active: 18.4 µM | 
COc1ccccc1CCNC1CCC(C)CC1 (stereo not given) | inconclusive: 18.4 µM [inhibitor, partial curve] | 
O=[N+]([O-])c1cccc(CN2CCN(Cc3ccc(Cl)cc3)CC2)c1 | active: 16.4 µM | 
O=C(c1ccc(CNS(=O)(=O)c2ccc(Br)cc2)cc1)N1CCC2(CC1)OCCO2 | active: 9.2 µM | 
Cc1ccc(Cn2cc(C=O)c3ccccc32)cc1 | inconclusive: 25.9 µM [inhibitor, partial curve] | 
CC1c2ccccc2-n2nncc2CN1CC1CCCCC1 (stereo not given) | inconclusive: 20.6 µM [inhibitor, single point] | 
CCCCCCCCCCCCCCCC[N+](C)(C)C | active: 1.06 µM and active: 820 nM and active: 1.84 µM | 
Cn1cccc1/C=C1/C(=O)NC(=O)N(Cc2ccc(F)cc2)C1=O | active: 9.2 µM | 
N#CC(C#N)=Cc1cc(O)c(O)c(O)c1 | active: 18.4 µM and active: 15 µM | 
CC(C)Oc1cccc(C(=O)C2CCCN(Cc3ccon3)C2)c1 (stereo not given) | inconclusive: 29.1 µM [inhibitor, single point] | 
CC12CCC(=O)C=C1CCC1C2CCC2(C)C1CCC2(O)CC#N (stereo not given) | inconclusive: 23.1 µM [inhibitor, partial curve] | 
